Measured values: PubChem BioAssay AID901 (National Center for Advancing Translational Sciences (NCATS), 2007)
Among all 120,000 compounds or so, fewer than 10 were called active. Inconclusive means that the source gave no clear call. Such entries were picked first, then a sample of the others. The call rests on the fitted dose curve; in most records, active means well fitted curve in the direction sought with a large enough effect in the signal ratio (not every such curve was filed as active); inconclusive means small, poorly fitted or top-dose-only effect, or a change in a side signal; inactive means no such curve, though single readings can be large or run the other way; the % refers to the signal ratio. No potency is given beside an inconclusive call; the fits are too rough.

Each molecule was assayed against Inositol monophosphatase 1 (Rattus norvegicus) (UniProt P97697) (assay: qHTS Assay for Identifying the Cell-Membrane Permeable IMPase Inhibitors). Conditions: CHO-M1 cells, HTRF TR-FRET ratio; Potency: IP1 accumulation unless noted; inhibition (IP1 accumulation): at 46.1 µM (top of the series) unless noted.
UniProt P97697, sequence (P97697 whole entry, looked up): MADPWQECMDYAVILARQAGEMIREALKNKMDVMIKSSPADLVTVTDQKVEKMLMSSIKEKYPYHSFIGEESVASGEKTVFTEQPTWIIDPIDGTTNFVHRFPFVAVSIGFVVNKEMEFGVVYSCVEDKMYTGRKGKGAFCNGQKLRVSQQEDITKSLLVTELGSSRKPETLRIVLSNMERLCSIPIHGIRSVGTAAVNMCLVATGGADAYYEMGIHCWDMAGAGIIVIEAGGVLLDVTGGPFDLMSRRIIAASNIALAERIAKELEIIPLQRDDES
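Further: cells stimulated with carbachol in lithium chloride buffer.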
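Wherever inhibition (IP1 accumulation) is given: plate controls were DMSO basal wells for no effect and reference inhibitor wells for full effect; higher means more IMPase inhibition seen as more IP1 and lower FRET ratio.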

Row | SMILES | Potency | inhibition (IP1 accumulation)
1 | Cc1ccc(-c2cc(C(=O)NCCCn3ccnc3)c3cc(Br)ccc3n2)o1 | inconclusive [falling, single point] | 
2 | COc1ccc(CC(=O)Nc2sc3c(c2C(=O)Nc2ccc(C)cc2)CCCCC3)cc1 | inactive | 
3 | CCn1nnnc1NCc1ccc(N2CCCC2)cc1 | inactive | 
4 | NC(=O)c1c(NC(NC(=O)c2ccco2)C(=O)c2ccc(Cl)cc2)sc2c1CCCC2 (centres undefined) | inactive | 
5 | CNc1nc(-c2ccccc2)nc(-c2ccccc2)c1C#N | inconclusive [falling, single point] | 
6 | COc1ccc(OC)c(/C=C/C(=O)Nc2ccc(C(=O)OCCC(C)C)cc2)c1 | inconclusive [inhibitor, partial curve, poor fit] | 
7 | CCC(C)NC(=O)CCSc1nc(-c2ccc(OC)cc2)cc(C(F)(F)F)n1 (centres undefined) | inconclusive [falling, single point] | 
8 | Cn1c(-c2c(N)n(CCCc3ccccc3)c3nc4ccccc4nc23)nc2ccccc21 | inconclusive [inhibitor, single point] | 
9 | Cc1cccc(S(=O)(=O)Nc2cccc3c2C(=O)c2ccccc2-3)c1 | inconclusive [inhibitor, partial curve, poor fit] | 
10 | COc1ccc(C(=O)Nc2nc(C)c3cc4c(cc3n2)OCO4)cc1 | inconclusive [inhibitor, single point] | 
11 | CCOc1ccc2nc(N3CCCC(C(=O)NCCCN4CCOCC4)C3)sc2c1 (centres undefined) |  | inconclusive: 3.74% [phenotype inactive]
12 | O=C1c2oc3ccccc3c(=O)c2C(c2cccc(F)c2)N1CCCO (centres undefined) | inactive | 
13 | Cc1cccc(C)c1NC(=S)N/N=C/c1ccc(OCCC(C)C)cc1 | inactive | 
14 | O=C(Nc1ccccc1-c1ccccc1)c1cccc(C(F)(F)F)c1 | inactive | 
15 | Cc1cc(C)c(NC(=S)NC(=O)c2ccc(-c3ccccc3)cc2)c(C)c1 | inactive | 
16 | O=C(COc1ccc2ccccc2c1)NCCNC(=O)COc1ccc2ccccc2c1 | inconclusive [falling, single point] | 
17 | COc1cccc(NC(=O)Cc2ccccc2)c1 | inactive | 
18 | CCOC(=O)C1=C(c2ccccc2)N=C2SCC(=O)N2C1c1ccc(OC)c(OC)c1 (centres undefined) | inactive | 
19 | O=C(O)[C@@H]1C[C@@H](C(=O)O)N1 | inactive | 
20 | CCCn1c2ccccc2c2nnc(SCC(=O)Nc3nnc(CC(=O)OCC)s3)nc21 | inconclusive [inhibitor, partial curve] | 
21 | Cc1ccc(-c2cc(C(=O)NCc3cnn(C)c3C)c3cc(Br)ccc3n2)cc1 | inconclusive [inhibitor, partial curve, poor fit] | 
22 | COC(=O)c1sc(NC(=O)C2c3ccccc3Oc3ccccc32)c(C(=O)OC)c1C | inconclusive [falling, single point] | 
23 | COc1ccccc1C(=O)Nc1c(C(=O)c2ccccc2)oc2ccccc12 | inconclusive [inhibitor, single point] | 
24 | Cc1ccc(S(=O)(=O)/C=C\C#N)cc1 | inactive | 
25 | Cc1cccn2cc(CNC(=O)C3CCCCC3)nc12 | inactive | 

Row | SMILES | Potency | inhibition (IP1 accumulation)
26 | COc1cc(C(=O)OC(C)CN2CCOCC2)cc(OC)c1OC (centres undefined) |  | inconclusive: 14.3% [phenotype inactive]
27 | Cc1cccc(Cn2c(N3CCc4ccccc4C3)nc3c2c(=O)[nH]c(=O)n3C)c1 | inconclusive [falling, single point] | 
28 | O=C(COc1ccc(S(=O)(=O)NC2CCCCC2)cc1)N1CCN(c2cccc(Cl)c2)CC1 | inactive | 
29 | COc1ccc(-c2cc(C(F)(F)F)c(C#N)c(SCC(=O)Nc3ccccc3C#N)n2)cc1 | inconclusive [inhibitor, single point] | 
30 | Cc1cc(=O)oc2c(CN(CC(C)C)CC(C)C)c(O)ccc12 | inconclusive [inhibitor, single point] | 
31 | Nc1c(O)ccc2c1C(=O)c1ccccc1C2=O | inconclusive [rising, partial curve] | 
32 | COc1ccc(C(=O)Nc2cccnc2)cc1OC |  | inconclusive: -8.4% [phenotype inactive]
33 | Cc1ccc(N(C(=O)NC2CCCCC2)C2=NCCCCC2)cc1 | inconclusive | 
34 | CCn1nnnc1SCC(=O)Nc1ccc2c(c1)OCO2 |  | inconclusive: 12.6% [phenotype inactive]
35 | O=C1c2ccccc2C(=O)N1c1nc2nccc(-c3ccccc3)n2n1 | inconclusive [inhibitor, single point] | 
36 | O=C(CCCCCn1c(=S)[nH]c2cc3c(cc2c1=O)OCO3)N1CCN(C(=O)c2ccco2)CC1 | inconclusive [falling, single point] | 
37 | O=C(C1=C(O)C(=O)N(CC2CCCO2)C1c1cccnc1)c1ccco1 (centres undefined) | inconclusive [inhibitor, partial curve] | 
38 | CCOc1ncccc1C(=O)Nc1ccccc1C(=O)NCc1ccc2c(c1)OCO2 | inconclusive [falling, single point] | 
39 | Nc1ccc(-c2nc3ccc(N)cc3o2)cc1 | inconclusive [inhibitor, single point] | 
40 | Brc1ccc(Sc2cnc3ccccc3n2)cc1 | inconclusive [inhibitor, partial curve, poor fit] | 
41 | O=C(NC(=S)Nc1ccccc1N1CCCC1)c1ccccc1[N+](=O)[O-] |  | inconclusive: -9.49% [phenotype inactive]
42 | CCOC(=O)/C(=C\c1cccnc1)C(=O)c1cc(C(C)=O)c(Nc2ccccc2)s1 | inactive | 
43 | Brc1cc2[nH]cnc2c2ccccc12 | inconclusive [inhibitor, single point] | 
44 | COc1ccc(-c2csc3nc(-c4ccccc4C)oc(=O)c23)cc1OC | inconclusive [falling, single point] | 
45 | CCCn1c2c(c(O)c(C(=O)Nc3ncccc3O)c1=O)CCCC2 | inactive | 
46 | C[C@H](N)C1CCC(C(=O)Nc2ccncc2)CC1 (some centres undefined) | inactive | 
47 | Cc1ccc(CNC(=O)C2CCN(S(=O)(=O)c3cccs3)CC2)o1 | inactive | 
48 | COC(=O)c1cn(CC(=O)NC2CCCCCC2)c2ccccc12 |  | inconclusive: 8.86% [phenotype inactive]
49 | Cc1nn(Cc2ccccc2)c(=O)n1N(C)c1ncc(C(F)(F)F)cc1Cl | inactive | 
50 | Cn1c(NCCCO)nc2c1c(=O)n(Cc1ccccc1F)c(=O)n2C | inactive | 

Row | SMILES | Potency | inhibition (IP1 accumulation)
51 | Cc1cccc(CN2CCN(CC(=O)O)C2=O)c1 | inconclusive [inhibitor, partial curve] | 
52 | Cc1ccnc2nc(C(=O)NCc3cccs3)nn12 | inconclusive [falling, single point] | 
53 | O=C(CCc1c[nH]c2ccccc12)NCC1CCCO1 (centres undefined) | inactive | 
54 | Cc1cc(C(=O)Nc2ccccn2)cs1 | inactive | 
55 | CC(=O)C1=C(C)NC(SCC(=O)c2ccc(Cl)cc2)=C(C#N)C1CC(C)C (centres undefined) | inconclusive [falling, partial curve] | 
56 | COC(=O)c1cc2c(-c3ccccc3)c(C)c3ccccn3c-2c1C(=O)OC | inconclusive [inhibitor, single point] | 
57 | COC(=O)c1c(NC(=O)c2ccc(C(C)(C)C)cc2)sc2c1CCC(C)C2 (centres undefined) |  | inconclusive: -0.428%
58 | O=S1(=O)c2cccc3cccc(c23)N1Cc1nnc(-c2ccccc2Br)o1 |  | inconclusive: 9.46% [phenotype inactive]
59 | Cn1c(Oc2ccccc2)c(C=O)c2ccccc21 | inactive | 
60 | Cn1c(=O)c2c(ncn2CC(=O)Nc2cc(Cl)c(Cl)cc2Cl)n(C)c1=O | inactive | 
61 | O=C(O)c1cc2ccc3ccccc3c2oc1=O | inconclusive [inhibitor, partial curve, poor fit] | 
62 | c1ccc(Cn2nnnc2CN2CCN(Cc3ccc4c(c3)OCO4)CC2)cc1 | inactive | 
63 | CN(C)c1ccc(NC(=O)N2CCOCC2)cc1 | inconclusive [activator, single point] | 
64 | Cc1ccc(-n2ncc3c(NCc4ccccc4)ncnc32)cc1 | inconclusive [inhibitor, single point] | 
65 | O=C(c1cccs1)N1CCN(Cc2cccc([N+](=O)[O-])c2)CC1 |  | inconclusive: -6.64% [phenotype inactive]
66 | CCc1nc2nc(C)cc(Nc3ccc(Br)cc3F)n2n1 |  | inconclusive: 1.25% [phenotype inactive]
67 | CC1Cc2ccccc2N1C(=O)COc1nc2ccccc2nc1N1CCOCC1 (centres undefined) | inconclusive [inhibitor, single point] | 
68 | COc1ccc(C(=O)n2nc(-c3ccco3)nc2SC)cc1OC | inactive | 
69 | COC(=O)c1cc(NC(=O)c2ccc(Cn3cc(Cl)cn3)o2)cc(C(=O)OC)c1 | inactive | 
70 | CCOCC(=O)Nc1ccc(-c2cn3cccnc3n2)cc1 | inconclusive [inhibitor, single point] | 
71 | COc1cc(C(=O)Nc2ccc(S(=O)(=O)NC(C)(C)C)cc2)cc(OC)c1OC | inconclusive [inhibitor, single point] | 
72 | CC(C)CNC(=O)CCSc1nc(-c2ccc3c(c2)OCO3)cc(C(F)(F)F)n1 | inconclusive [inhibitor, single point] | 
73 | Cc1[nH]c2ccccc2c1/C=C/c1cc[n+](C)cc1 | inconclusive [rising, partial curve, poor fit] | 
74 | CCc1nc(SCc2cccnc2)c2c(=O)n(C)c(=O)n(C)c2n1 | inconclusive [falling, single point] | 
